Assay results as given in PubChem BioAssay AID2107 (National Center for Advancing Translational Sciences (NCATS), 2009).
Among all 240,000 compounds or so, about 20 (0.008%) were called active. The inconclusive results got no clear call from the source; some entries with a clear call stand among them for comparison. Calls come from the whole dose curve; as a rule, active = well fitted inhibition curve with a large enough effect; inconclusive = small, poorly fitted or top-dose-only effect, or effect the other way; inactive = flat fitted curve, though single readings scatter. Potencies of inconclusive entries are left out as doubtful fits.

molecular target: Alpha-galactosidase A (Homo sapiens) (UniProt P06280); test: qHTS Assay for Inhibitors and Activators of Human alpha-Galactosidase From Spleen Homogenate; details: 4MU-alpha-Gal fluorescence, 40 min; activity change, negative = inhibition: at 80 µM (top of the series);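 for activity change, negative = inhibition: 0% = enzyme with vehicle and -100% = no enzyme basal signal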
Summary of the method: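 Fluorogenic readout (Ex 365/Em 440 nm) of 4-methylumbelliferone released from 1 mM 4-MU-alpha-galactoside by spleen homogenate, 40 min at 37C, pH 5.0. Data normalized to no-enzyme and enzyme controls; Hill-equation AC50 from compound titrations.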
Potency is the fitted concentration of half-maximal effect; tags give direction and shape of the fitted curve.

Sequence of UniProt P06280 (P06280 whole entry, looked up): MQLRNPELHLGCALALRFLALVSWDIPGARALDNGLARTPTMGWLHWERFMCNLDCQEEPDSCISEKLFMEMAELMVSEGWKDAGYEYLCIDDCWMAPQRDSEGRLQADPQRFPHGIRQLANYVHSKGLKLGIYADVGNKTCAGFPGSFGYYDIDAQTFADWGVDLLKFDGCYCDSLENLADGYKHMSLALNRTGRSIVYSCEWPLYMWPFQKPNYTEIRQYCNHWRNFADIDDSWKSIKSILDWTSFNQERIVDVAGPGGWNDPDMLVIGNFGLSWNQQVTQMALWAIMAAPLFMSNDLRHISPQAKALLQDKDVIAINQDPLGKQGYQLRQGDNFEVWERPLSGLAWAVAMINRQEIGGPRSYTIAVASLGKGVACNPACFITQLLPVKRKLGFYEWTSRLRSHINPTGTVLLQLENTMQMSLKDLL

SMILES | Potency | activity change, negative = inhibition
COc1ccccc1-c1noc(CCC(=O)Nc2cccc(C(F)(F)F)c2)n1 | inconclusive [inhibitor, single point] | –
CCCN(CCC)CCCNC(=S)Nc1ccc2nc(N3CCCC3)cc(C)c2c1 | inconclusive [activator, single point] | –
COCCn1c(=O)[nH]c2cc(C(=O)OC)ccc2c1=O | inconclusive [activator, partial curve] | –
COC(=O)c1ccc(NC(=O)CCc2c(C)nc3ncnn3c2C)cc1 | inconclusive [activator, single point] | –
COCCN1C=C(C(=O)OC)C(c2cc(Br)c(OC)c(OC)c2)C(C(=O)OC)=C1 | inconclusive [activator, full curve] | –
O=C(NCc1ccco1)c1nc2c(nnn2Cc2cccc(Cl)c2)c(=O)[nH]1 | inactive | –
Fc1ccc(-c2nc3n(c2-c2ccncc2)CCS3)cc1 | inactive | –
CCOC(=O)COc1ccc2cc(C(=O)OCC)c(=O)oc2c1 | inconclusive [activator, partial curve] | –
CCCN1CCC(=O)N([C@H](CSc2ccc(C)cc2)c2ccccc2)CC1 | inconclusive [inhibitor, single point] | –
C=CCOC(=O)C(C(C)=O)C(NC(=O)OC)c1ccco1 (configuration not stated) | – | inactive: -1.11% [at 17.5 µM]
COc1cccc(-c2nc(N3CCN(Cc4ccccc4)CC3)c3ccccc3n2)c1O | inconclusive [activator, partial curve] | –
CN1CCCC2(CCN(C(=O)c3cccc(F)c3)CC2)C1 | inactive | –
COc1ccc(/C=N/Nc2nonc2N)c(OC)c1 | inactive | –
C=C(C)C(O)C(CC/C=C(\C)C(=O)OCC)OC (configuration not stated) | – | inactive: -6.94% [at 17.5 µM]
O=C(NCc1ccco1)c1cc2ccc(O)cc2oc1=O | inconclusive [activator, partial curve] | –
CC1=CC(c2ccc(Cl)cc2)n2nc(N3C(=O)CCC3=O)nc2N1 (configuration not stated) | inconclusive [activator, single point] | –
CC1(C)Cc2c(C#N)c(SCC(=O)c3ccccc3)nc(N3CCOCC3)c2CS1 | inactive | –
N#Cc1c(NC(=S)NC(=O)c2ccccc2)sc2c1CCCC2 | inconclusive [inhibitor, single point] | –
COc1ccc(NC(=O)c2cn(CCC#N)nc2-c2cccs2)cc1 | inactive | –
O=C1CC(SCc2nc3ccccc3[nH]2)C(=O)N1c1ccc(F)c(Cl)c1 (configuration not stated) | inactive | –
COC(=O)C/C=C\[C@@H](C)[C@@H](/C=N\O[C@@H](C)c1cc(-c2c(C)cc(C)cc2C)no1)OC | – | inactive: -3.67% [at 17.5 µM]
O=S(=O)(NCC1CCCO1)c1ccc(S(=O)(=O)N(Cc2ccc(F)cc2)Cc2ccco2)cc1 (configuration not stated) | inconclusive [inhibitor, partial curve] | –
CC(C)COc1ccc(/C(O)=C2/C(=O)C(=O)N(CCN(C)C)C2c2ccncc2)cc1 (configuration not stated) | inconclusive [inhibitor, partial curve] | –

SMILES | Potency | activity change, negative = inhibition
O=C1NC(c2ccc(-c3ccccc3[N+](=O)[O-])o2)C(C(=O)c2ccc(F)cc2)C(O)(C(F)(F)F)N1 (configuration not stated) | inactive | –
Cc1cc(=O)[nH]c2c(C)c(N)ccc12 | inconclusive [activator, partial curve] | –
O=c1oc2cc(O)ccc2c2c1CCCC2 | inconclusive [activator, partial curve] | –
CCOC(=O)c1cnn2c(C(F)(F)F)cc(-c3ccco3)nc12 | inconclusive [activator, single point] | –
O=c1cc(CN2CCN(S(=O)(=O)c3ccc4c(c3)OCCO4)CC2)c2ccc(O)cc2o1 | inconclusive [activator, partial curve] | –
O=c1cnc2cnc(Nc3ccccc3)nc2n1C1CC1 | inactive | –
O=C1c2ccccc2C(=O)N1CC1c2ccccc2CCN1S(=O)(=O)c1cnc[nH]1 (configuration not stated) | inconclusive [inhibitor, single point] | –
Cc1ccc(-c2c3c([nH]c(=S)c2C#N)CCCC3)o1 | inactive | –
CCC1(CC)Cc2ccccc2-c2nc(NCCCO)[nH]c(=O)c21 | inconclusive [activator, single point] | –
CC1(C)CC(=O)c2cc(OCC(=O)NCc3cccnc3)ccc2O1 | inconclusive [activator, single point] | –
NC(=O)c1ccc(-c2ncc(-c3ccccc3)o2)cc1 | inconclusive [activator, single point] | –
CC(C)(C)OC(=O)NCCC(=O)Oc1ccc2ccc(=O)oc2c1 | inconclusive [activator, partial curve] | –
COc1ccc(CCNC(=O)C(=O)NCc2ccc(Cl)cc2)cc1OC | inactive | –
COc1cc(Sc2ccc(C)cc2)c(OC)cc1N | inactive | –
N#CCCn1c(=O)c(-c2ccccc2)nc2cnc(N3CCNCC3)nc21 | inconclusive [activator, single point] | –
OC[C@H]1O[C@@H](n2cnc3c(Nc4ccccc4)ncnc32)[C@H](O)[C@H]1O | inconclusive [inhibitor, full curve] | –
NC(=O)C1CCCN(C(=O)c2ccc(Cl)cc2)C1 (configuration not stated) | inconclusive [inhibitor, single point] | –
C/C1=C2N=C(/C=C3N=C(/C(C)=C4\[N-]C(C)(C5N=C1C(C)(CCC(=O)NCC(C)OP(=O)([O-])O[C@H]1C(O)C(n6cnc7cc(C)c(C)cc76)O[C@@H]1CO)C5CC(N)=O)C(C)(CC(N)=O)C4CCC(N)=O)C(C)(CC(N)=O)C\3CCC(N)=O)C(C)(C)C/2CCC(N)=O.[CH2-]C1OC(n2cnc3c(N)ncnc32)C(O)C1O.[Co] (some centres not stated) | inactive | –
CCNc1ncc2nc(-c3ccc(Cl)cc3)c(=O)n(CCC#N)c2n1 | inconclusive [activator, partial curve] | –
C=CCNC(=O)COc1ccc(Oc2ccccc2)cc1 | inconclusive [inhibitor, single point] | –
O=c1c(-c2ccccc2)nc2cnc(N3CCOCC3)nc2n1C1CC1 | inconclusive [activator, single point] | –
C=CCn1c(=N)c(C(=O)OCC)cc2c(=O)n3cc(C)ccc3nc21 | inconclusive [activator, single point] | –
Cc1ccc(Nc2nnc(-c3ccccc3N)o2)cc1C | inconclusive [activator, partial curve] | –

SMILES | Potency | activity change, negative = inhibition
Cc1nc2ccc(NC(=O)N3CCCCC3)cc2nc1C | inconclusive [activator, single point] | –
CN(C)CCCNc1c2c(c(C#N)c3nc4ccccc4n13)CCC2 | inconclusive [activator, single point] | –
Cc1cc(/C=N/Nc2nc(N)ncc2[N+](=O)[O-])c(C)n1-c1cccc(C(F)(F)F)c1 | inactive | –
CCc1nnc(NC(=O)c2ccc(Cl)c(S(=O)(=O)N3CCc4ccccc4C3)c2)s1 | inconclusive [inhibitor, full curve, poor fit] | –
Cn1c(CSCc2ccccc2)n[nH]c1=S | inconclusive [activator, single point] | –
CC1CCN(CCCNC(=O)c2coc3nc4ccccc4nc23)CC1 | inconclusive [activator, partial curve] | –
COc1ccc(OC)c(C(=O)COC(=O)c2ccc(C)o2)c1 | inconclusive [inhibitor, partial curve, poor fit] | –
Cc1ccccc1N(C(=O)Cc1cccs1)C(C(=O)NC1CCCCC1)c1cn(C)nc1C (configuration not stated) | inactive | –
CN(C)c1ncnc2ccc(-c3cccc(C#N)c3)cc12 | inactive | –
O=C(Nc1ccc(Cl)cn1)c1cc2c(s1)-c1ccccc1OC2 | inconclusive [activator, single point] | –
COc1ccc(-c2ccc(CCC(=O)O)n2CC(C)C)cc1 | inconclusive [activator, partial curve] | –
O=C1CCCC2=C1C(c1cccs1)n1nc(SCc3ccc(C(=O)O)cc3)nc1N2 (configuration not stated) | inconclusive [activator, partial curve] | –
Cc1ccc(S(=O)(=O)N2CCC(C(=O)Nc3nnc(COc4ccccc4)s3)CC2)cc1 | inconclusive [activator, single point] | –
C=CCC1(C)OC=Cc2nc3cc(Cl)c(Cl)cc3nc21 (configuration not stated) | – | inactive: 5.17% [at 17.5 µM]
CCOC(=O)c1c(C)[nH]c(C(=O)CN2C(=O)NC(C)(c3ccc(C)cc3)C2=O)c1C (configuration not stated) | inconclusive [activator, single point] | –
CC[C@@]1(O)C(=O)COc2c1cc1n(c2=O)Cc2c-1nc1cccc(C(C)C)c1c2[Si](C)(C)C | inconclusive [activator, partial curve, poor fit] | –
Cc1cc(C)c2c(n1)nn1c(NCCN3CCOCC3)cc(C)nc21 | inconclusive [activator, partial curve] | –
COc1cccc(-c2ccc(C#N)c(=O)[nH]2)c1 | inconclusive [activator, partial curve] | –
CCOc1ccc(-n2c(N)c(C(=O)NCc3ccco3)c3nc4ccccc4nc32)cc1 | inconclusive [activator, single point] | –
O=S(=O)(NCc1cn2ccsc2n1)c1cccs1 | inactive | –
CC(C)C(=O)NC(=S)Nc1ccccc1C(=O)Nc1ccccc1 | inactive | –
